Holding throughout (settings): 20 mM HEPES pH 7.9, 100 mM NaCl, 1 mM DTT, 0.2 mg/mL BSA, 0.02% Triton X-100, 2% milk, 0.4 mg/mL salmon testes DNA; 1 h; temperature not stated; high values mean tight binding; double strand, one strand shown; sequences stand for … in GCCTAGCAC…GTGCTAGGTCTTGATTCGCTTGACGCTGCTG
One experiment has as its target PU.1 (IVT) (UniProt P17947). The experiment is described as follows: protein-binding microarray (PBM).
Experiment [1] addresses PU.1 (endogenous, THP-1 nuclear extract) (UniProt P17947). The experiment can be described thus: nuclear extract protein-binding microarray (nextPBM).
In experiment [2] the target is T1, FLI1 (endogenous, THP-1 nuclear extract) (UniProt Q01543).
T1 sequence: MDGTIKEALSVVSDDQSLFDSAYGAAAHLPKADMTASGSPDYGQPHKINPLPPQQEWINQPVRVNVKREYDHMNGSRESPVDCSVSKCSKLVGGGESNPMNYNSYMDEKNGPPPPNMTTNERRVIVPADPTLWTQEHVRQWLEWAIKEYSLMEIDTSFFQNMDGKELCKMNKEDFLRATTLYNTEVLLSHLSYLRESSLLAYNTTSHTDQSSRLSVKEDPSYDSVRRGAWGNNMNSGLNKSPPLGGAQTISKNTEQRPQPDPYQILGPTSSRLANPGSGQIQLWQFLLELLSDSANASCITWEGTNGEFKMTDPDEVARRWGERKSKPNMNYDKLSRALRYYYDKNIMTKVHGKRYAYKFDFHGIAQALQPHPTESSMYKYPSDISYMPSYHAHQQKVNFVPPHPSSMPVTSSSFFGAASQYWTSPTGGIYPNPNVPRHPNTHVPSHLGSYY
The description is as above.

The other results are listed elsewhere or left out. For part of these data: At the low end of the ranking the order means little. For part of these data: The protein was read in a cell extract, so binding may be indirect.

For the sequence GAAAACAAGAAGTCCCATAG, the binding signal in the experiment with PU.1 (IVT) was 2.12 z-score; in experiment [1], 2.07 z-score; in experiment [2], 0.415 z-score.

On to TAAAGAGGGAAGTGTGACTA, for which the binding signal was determined as 3.89 z-score with PU.1 (IVT), 3.96 z-score in experiment [1] and 2.03 z-score in experiment [2].

Take AAGAAGAGGAACTGGCAAGT: the binding signal stood at 4.41 z-score in the experiment with PU.1 (IVT), 4.49 z-score in experiment [1] and 1.52 z-score in experiment [2].

For the sequence GCATAGAGGAAGTGGCGGCA, the results for the binding signal (in the experiment with PU.1 (IVT); in experiment [1]; in experiment [2]) were 4.83 z-score, 4.8 z-score and 2.81 z-score, respectively.

Take GAAAAAAGGAAGTGGCAAGC: the binding signal with PU.1 (IVT) is 6.35 z-score; in experiment [1], 6.57 z-score; in experiment [2] it was 2.97 z-score.

ATAAAGAGGAAGTGAAGCCA: the binding signal in the experiment with PU.1 (IVT) turned out to be 7.27 z-score; in experiment [1] it was 7.06 z-score; in experiment [2], 3.7 z-score.

In the case of CAAAGGGGGAAGTGCAACAC, the binding signal stood at 5.07 z-score with PU.1 (IVT), 5.11 z-score in experiment [1] and 2.12 z-score in experiment [2].

As to TATTAGAGGAACTGCCAGTT, the binding signal is 3.09 z-score with PU.1 (IVT), 2.62 z-score in experiment [1] and 0.996 z-score in experiment [2].

Turning to GAAGAGAGGAAGTACTGCCT, the values for the binding signal (with PU.1 (IVT); in experiment [1]; in experiment [2]) were 5.12 z-score, 4.99 z-score and 2.7 z-score, respectively.

Take AGGGAGAGGAAGTAGCATTA: the figures for the binding signal (with PU.1 (IVT); in experiment [1]; in experiment [2]) were 4.73 z-score, 4.41 z-score and 2.58 z-score, respectively.

With CAAAAAGGGAAGTGGATGCC, the binding signal with PU.1 (IVT) was 6.51 z-score; in experiment [1], 6.58 z-score; in experiment [2], 3.4 z-score.

In the case of GATAAGACGAAGTCCTCTGT, the binding signal with PU.1 (IVT) is -0.721 z-score; in experiment [1], 0.108 z-score; in experiment [2] it was 0.0442 z-score.

As for AGAAGGAGGAAGTGAGTTAG, the binding signal worked out at 5.95 z-score in the experiment with PU.1 (IVT), 6.5 z-score in experiment [1] and 3.49 z-score in experiment [2].

Consider ATAAAGAGGAAGTGGCTAGG, for which the binding signal with PU.1 (IVT) turned out to be 7.2 z-score; in experiment [1], 7.13 z-score; in experiment [2], 3.66 z-score.

As to GAGAAAAGGAAGTGAAGACA, the binding signal was determined as 3.69 z-score in the experiment with PU.1 (IVT), 3.37 z-score in experiment [1] and 2.5 z-score in experiment [2].

Turning to AAATAGAGGAAGTGCATTTT, the binding signal turned out to be 7.69 z-score with PU.1 (IVT), 7.35 z-score in experiment [1] and 3.46 z-score in experiment [2].

Take TAGGAGGGGAAGTGGGACCC: the binding signal with PU.1 (IVT) is 3.32 z-score; in experiment [1] it was 3.25 z-score; in experiment [2], 1.79 z-score.

With AGAAAAAGGAAGTGACACAG, the binding signal with PU.1 (IVT) was found to be 6.18 z-score; in experiment [1] it was 6.14 z-score; in experiment [2], 2.92 z-score.

On to GTGGAGGGGAAGTGGGAGGG, for which the binding signal with PU.1 (IVT) worked out at 3.01 z-score; in experiment [1], 3.01 z-score; in experiment [2], 2 z-score.

Consider ACAAAAAGGAACTGTGTCCC, for which the binding signal with PU.1 (IVT) came out at 2.34 z-score; in experiment [1], 1.64 z-score; in experiment [2] it was 1.11 z-score.

For the sequence GATAAGAGGACGTCCTCTGT, the binding signal in the experiment with PU.1 (IVT) is -0.187 z-score; in experiment [1], -0.261 z-score; in experiment [2], 0.158 z-score.

Regarding AAAGAGGGGAACTGGAGATG, the results for the binding signal (in the experiment with PU.1 (IVT); in experiment [1]; in experiment [2]) were 1.77 z-score, 2.06 z-score and 0.648 z-score, respectively.

For the sequence AAAAAGAGGAACAGTTTAAG, the binding signal is 5.75 z-score in the experiment with PU.1 (IVT), 5.66 z-score in experiment [1] and 1.63 z-score in experiment [2].

As for AGAAGAAGGAAGTACTGTGG, the binding signal was 4.76 z-score with PU.1 (IVT), 4.85 z-score in experiment [1] and 2.42 z-score in experiment [2].

With AAAAAAGGGAAGTGCCATAA, the binding signal with PU.1 (IVT) was found to be 7.55 z-score; in experiment [1], 7.07 z-score; in experiment [2] it was 3.06 z-score.

AAGAAAGGGAAGTGCACTTG: the figures for the binding signal (with PU.1 (IVT); in experiment [1]; in experiment [2]) were 4.78 z-score, 5.06 z-score and 1.92 z-score, respectively.

As for GGAAAGGGGAAGTGCTAAAC, the binding signal in the experiment with PU.1 (IVT) is 7.48 z-score; in experiment [1] it was 7.05 z-score; in experiment [2] it was 3.53 z-score.

TACAAGAGGAAGTGAATTTT: the binding signal turned out to be 5.76 z-score with PU.1 (IVT), 6.33 z-score in experiment [1] and 3.35 z-score in experiment [2].

On to AAAAAGAGGAACTTGGGCAT, for which the binding signal is 8.01 z-score in the experiment with PU.1 (IVT), 7.21 z-score in experiment [1] and 3.42 z-score in experiment [2].

Regarding CACAAGAGGAAGTGGCAGCT, the binding signal was 4.78 z-score in the experiment with PU.1 (IVT), 5.59 z-score in experiment [1] and 3.12 z-score in experiment [2].

Turning to GTAAAGAGGAAGTGCCCTAG, the binding signal with PU.1 (IVT) came to 7.1 z-score; in experiment [1], 6.69 z-score; in experiment [2], 3.59 z-score.

With AATAGGAGGAAGTGGCAAGT, the binding signal with PU.1 (IVT) was 4.68 z-score; in experiment [1], 5.05 z-score; in experiment [2] it was 2.91 z-score.

Regarding ATAAAGAGGAAGTGCTGGAA, the binding signal with PU.1 (IVT) turned out to be 7.51 z-score; in experiment [1], 7.25 z-score; in experiment [2], 4.21 z-score.

For the sequence TGAAACAGGAAGTGTGTGTT, the binding signal with PU.1 (IVT) was 6.39 z-score; in experiment [1], 6.42 z-score; in experiment [2], 5.28 z-score.

As to TTTAACAGGAAGTGAAACCA, the results for the binding signal (in the experiment with PU.1 (IVT); in experiment [1]; in experiment [2]) were 4.61 z-score, 7.09 z-score and 5.27 z-score, respectively.

In the case of TCCAGGAGGAAGTGAGGAAT, the binding signal turned out to be 3.94 z-score in the experiment with PU.1 (IVT), 4.19 z-score in experiment [1] and 2.72 z-score in experiment [2].

CCTTGGAGGAAGTGATACCC: the binding signal with PU.1 (IVT) was 3.14 z-score; in experiment [1], 3.63 z-score; in experiment [2] it was 2.39 z-score.

Turning to AATAAGAGGAAGTCAAAATA, the binding signal in the experiment with PU.1 (IVT) stood at 6.65 z-score; in experiment [1], 6.54 z-score; in experiment [2], 3.33 z-score.

In the case of AAGAGGAGGAAGTGAAGAAA, the binding signal with PU.1 (IVT) amounted to 4.03 z-score; in experiment [1], 4.24 z-score; in experiment [2], 2.6 z-score.

Take CACAAGAGGAAGTCCCACAA: the binding signal in the experiment with PU.1 (IVT) was found to be 3.93 z-score; in experiment [1] it was 5.06 z-score; in experiment [2] it was 2.31 z-score.

For the sequence CCAAGCAGGAAGTGGGGAGG, the binding signal in the experiment with PU.1 (IVT) worked out at 2.53 z-score; in experiment [1] it was 2.73 z-score; in experiment [2] it was 4.16 z-score.

Take CAAAAAGGGAAGTGCATGCT: the binding signal was 6.52 z-score with PU.1 (IVT), 6.79 z-score in experiment [1] and 2.8 z-score in experiment [2].

The values are drawn from article PMC6451091.
